# Experimental data as given in article PMC4336329 (PLoS ONE, 2015).
# Among all 310,000 compounds or so, about 14,000 (4.5%) showed an effect of 50% or more. Effects have a minus sign here. This is one part of the list.
# Biological target: human ether-à-go-go-related gene (hERG) potassium channel (human, UniProt Q12809)
# Assay: primary screen, population patch clamp on CHO cells stably expressing hERG
# 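Further: peak tail current of the secondary pulse compared with the same well before compound.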
# Chain of human ether-à-go-go-related gene (hERG) potassium channel (Q12809 whole entry, looked up): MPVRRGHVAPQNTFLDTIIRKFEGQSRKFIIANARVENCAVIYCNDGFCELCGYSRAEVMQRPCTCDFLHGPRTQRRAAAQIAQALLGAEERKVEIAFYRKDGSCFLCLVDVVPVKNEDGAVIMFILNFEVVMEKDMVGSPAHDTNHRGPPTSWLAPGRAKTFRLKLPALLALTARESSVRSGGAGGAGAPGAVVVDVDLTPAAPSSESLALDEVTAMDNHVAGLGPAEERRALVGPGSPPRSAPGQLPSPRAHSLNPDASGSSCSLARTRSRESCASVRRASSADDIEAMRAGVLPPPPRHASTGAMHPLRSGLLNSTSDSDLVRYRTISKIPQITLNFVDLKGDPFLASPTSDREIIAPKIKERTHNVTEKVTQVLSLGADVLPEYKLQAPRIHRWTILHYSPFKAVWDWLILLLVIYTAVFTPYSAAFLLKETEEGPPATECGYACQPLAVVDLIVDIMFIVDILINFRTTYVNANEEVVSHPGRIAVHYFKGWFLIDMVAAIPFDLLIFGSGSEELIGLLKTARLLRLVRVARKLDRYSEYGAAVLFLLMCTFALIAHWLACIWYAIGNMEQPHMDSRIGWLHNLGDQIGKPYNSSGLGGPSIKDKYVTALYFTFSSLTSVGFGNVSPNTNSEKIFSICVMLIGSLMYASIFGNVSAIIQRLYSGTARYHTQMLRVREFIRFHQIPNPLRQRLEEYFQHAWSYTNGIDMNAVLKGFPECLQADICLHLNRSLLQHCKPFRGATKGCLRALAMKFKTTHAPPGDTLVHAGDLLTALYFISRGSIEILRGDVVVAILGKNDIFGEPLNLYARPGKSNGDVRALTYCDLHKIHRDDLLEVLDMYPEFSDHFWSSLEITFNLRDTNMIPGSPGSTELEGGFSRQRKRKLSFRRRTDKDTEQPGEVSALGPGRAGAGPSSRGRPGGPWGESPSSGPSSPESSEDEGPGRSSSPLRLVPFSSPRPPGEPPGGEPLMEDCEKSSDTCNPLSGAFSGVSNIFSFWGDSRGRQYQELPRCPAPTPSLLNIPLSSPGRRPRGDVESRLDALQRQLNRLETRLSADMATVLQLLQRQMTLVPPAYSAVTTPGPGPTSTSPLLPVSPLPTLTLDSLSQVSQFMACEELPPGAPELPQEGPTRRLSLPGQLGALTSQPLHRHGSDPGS
row,SMILES,"hERG current change (%, negative = inhibition) at 10uM [%]"
1,Cc1cccc(NC(=O)c2sc(-c3ccccc3)nc2-c2ccc([N+](=O)[O-])cc2)c1,12.6
2,N#Cc1c(NC(=O)CSc2nnc(-c3ccncc3)n2CC2CCCO2)sc2c1CCCC2 (centres unmarked),-40.7
3,Cc1cc(C)cc(N(C(=O)C2CCCC2)C2C=CS(=O)(=O)C2)c1 (centres unmarked),-22.9
4,CC(=O)NC1C(=O)SC1(C)C (centres unmarked),21.5
5,COc1cc(OC)cc(C(=O)NCC(=O)N2CCN(c3ccc(O)cc3)CC2)c1,-4.58
6,O=c1[nH]c2ccccc2n2c(=S)[nH]nc12,32.5
7,O=C(NCC1CCCO1)c1cccc(S(=O)(=O)N2CCOCC2)c1 (centres unmarked),14.1
8,CC(Sc1ccc(Cl)cc1)C(=O)Nc1ccc2c(c1)OCO2 (centres unmarked),-8.04
9,Cc1cccc(NS(=O)(=O)c2cc3c(cc2C)n(C)c(=O)c(=O)n3C)c1,-20.9
10,COc1ccc(C(=O)NCCC2=CCCCC2)cc1,-9.79
11,COc1ccc(-c2csc(N3CCC(c4ccccc4)CC3)n2)cc1,23.2
12,CCC(=O)Nc1cccc(NC(=O)c2ccc(Br)cc2)c1,12
13,COc1ccc(S(=O)(=O)N2CCCCC2)cc1Br,-12.3
14,CN1/C(=C\C(=O)c2ccco2)c2ccccc2CC1(C)C,-17.1
15,C/C(=N/OC(=O)c1c(-c2ccccc2Cl)noc1C)c1cnccn1,-7.04
16,CCc1ccc(OCCCC(=O)Nc2ccc(N3CCCCC3)cc2)cc1,10.1
17,COc1ccc(N(C(C)C(=O)N/N=C/c2cc(Br)c(C)o2)S(C)(=O)=O)cc1 (centres unmarked),-54
18,CCc1nnc(NC(=O)CSc2nc3ccc(OC)cc3[nH]2)s1,-3.22
19,Cc1ccc(C(=O)CSc2nnc3ccccn23)c(C)c1,-5.23
20,O=C(c1cc2ccccc2o1)N1CCN=C1SCc1cccc(F)c1,-7.82
21,CC1CCCCN1S(=O)(=O)c1ccc(N(C(=O)c2cnccn2)C(C(=O)NC2CCCC2)c2cccs2)cc1 (centres unmarked),-20.5
22,CC1(C)C(=O)OC(c2cccn2-c2ccc([N+](=O)[O-])cc2)C(C)(C)C1=O (centres unmarked),-1.77

row,SMILES,"hERG current change (%, negative = inhibition) at 10uM [%]"
1,CCCC/C(C)=N/NC(=O)c1cn(-c2ccccc2)nc1-c1ccccc1,24.6
2,O=C(NN1CCOCC1)NC12CC3CC(CC(C3)C1)C2,1.76
3,CCOC(=O)[C@H]1[C@H]2COc3ccccc3[C@@H]2N2C(=O)c3c(C)cc(C)cc3NC(=O)[C@@]12C,-22.5
4,O=C(Nc1ccccc1)C1CCCN1C(=O)Nc1ccccc1[N+](=O)[O-] (centres unmarked),3.16
5,COC(=O)c1ccccc1NC(=O)COc1ccc2c(c1)OCO2,3.32
6,O=C(COc1cc2oc(=O)c3c(c2cc1Cl)CCC3)NCCCN1CCCC1=O,-3.1
7,COCC(=O)Nc1c(C(=O)Nc2ccc3c(c2)OCCO3)oc2ccccc12,-1.54
8,Cc1ccc(NC(=O)CN(C)S(=O)(=O)c2ccc3c(c2)n(C)c(=O)c(=O)n3C)cc1,13.9
9,O=C(NC1CCCCC1)c1sc(N2CCOCC2)nc1-c1ccccc1,-25.2
10,CS(=O)(=O)N(CC(=O)O)c1cc(C(F)(F)F)ccc1Cl,-16.9
11,C#CCNc1ccncc1S(=O)(=O)NC(=O)NC(C)C.O=[N+]([O-])O,-1.14
12,CCSc1ccc(/C(N)=N/OC(=O)c2cccs2)cn1,13.1
13,O=C(c1ccc(Br)s1)N1CCc2ccccc2C1,-40.9
14,Cc1c(NC(=O)C2CCN(S(=O)(=O)c3ccc(Cl)cc3)CC2)c(=O)n(-c2ccccc2)n1C,21
15,CC1(C)CC(=O)C=C(Nc2ccccn2)C1,8.92
16,CCc1nnc(NS(=O)(=O)c2ccc(N/C=C\C(=O)c3cccc(OC)c3)cc2)s1,21.3
17,Cc1cc(Oc2ccc(-c3nnc(-c4ccccc4)o3)cc2[N+](=O)[O-])ccc1Cl,19
18,CCOC(=O)Nc1ccc(S(=O)(=O)Nn2cnnc2)cc1,0.873
19,Cl.Fc1ccc(Nc2ncnc3sc4c(c23)CCC4)cc1,-21.6
20,FC(F)(F)c1cc(-c2ccccn2)nc2cc(-c3ccccc3)nn12,18.6
21,Cc1ccc(C(=O)OCc2nnc(-c3ccccc3)o2)cc1S(=O)(=O)N1CCOCC1,-26.7
22,O=C1CC(N2CCN(Cc3ccccc3)CC2)C(=O)N1c1ccccc1 (centres unmarked),2.8
